The text below walks through data of PubChem BioAssay AID1347073 (National Center for Advancing Translational Sciences (NCATS), 2019).

Screen size: about 45,000 compounds; about 200 (0.44%) were called active. Roughly 7% stayed inconclusive and do not appear here. Calls follow the shape of the dose curve; as a rule, active = well fitted activation curve with a large enough effect; inconclusive = small, poorly fitted or top-dose-only effect; inactive = no such curve, though single readings can be large or run the other way. Some of the results follow.

This test in a line: qHTS of TDP-43 Inhibitors: NCGC Sytravon Library Screen. Also: 0% is about no effect; nearly all actives have a fitted effect of over 55% in size. Particulars: yeast TDP-43 toxicity rescue, BacTiter-Glo growth, 24 h; series mostly up to 46.1 µM; growth rescue (activation): at the top concentration. Summed up:
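TDP-43-expressing yeast, pregrown in raffinose, seeded at OD600 0.02 in galactose medium with compound for 24 hr at 30 deg C. Growth read by BacTiter-Glo luminescence, so rescue of toxicity appears as activation.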
Regarding `COc1cccc(CN2CCNC(=O)C2CC(=O)N(C)CCC2CCOCC2)c1OC` (stereo unspecified), the “growth rescue (activation)” value was inactive: 5.25%. The result for `O=C(COC(=O)C1CCCC1)NCc1ccc(Cl)cc1` reads inactive: 1.66%; that for `CCOc1ccc(NC(=O)CN(C)C(=O)c2cc(C3CC3)nn2-c2ccccc2)cc1OCC`, inactive: 0.974%; that for `COc1cc(NS(=O)(=O)c2ccc(NC(=O)c3ccc(Cl)cc3Cl)cc2)ncn1`, inactive: 0.532%. The same measure for `COc1ccc(C)cc1NC(=O)C(OC(=O)c1cc(C)oc1C)c1ccccc1` (stereo unspecified): inactive: -24.9%; for `O=c1oc2ccccc2c(O)c1/C=N/c1ccccn1`: inactive: -0.482%; for `CCc1nc2c(OCCOC)cccn2c1N(C)C(=O)c1ccco1`: inactive: -0.957%. The result for `C/C=C/c1ccc(OCCOc2ccc(C=O)cc2)c(OC)c1` reads inactive: 18.6%; that for `CC1(C)Oc2ccc(C(=O)NNC(=O)Nc3ccccc3)cc2NC1=O`, inactive: -7.92%. `COc1ccc(/C=C2\SC(=O)N(CC(=O)NN3CCN(C)CC3)C2=O)cc1OC`: the “growth rescue (activation)” value was inactive: -14.8%.

`Cn1c(N)c(-c2ccccc2)c2ccc([N+](=O)[O-])cc2c1=O`: the “growth rescue (activation)” value is inactive: 16.6%.

On to `COc1ccccc1N(CC(O)CN1CCCCC1)S(=O)(=O)c1ccc(C)cc1` (stereo unspecified), for which the “growth rescue (activation)” value was inactive: 17.6%. `CN(C)C(CNC(=S)Nc1ccc(Cl)cc1)c1cccnc1` (stereo unspecified): the “growth rescue (activation)” value is inactive: -11.6%. The result for `C=C(C)[C@@H]1CC=C(CN2CCC(CCOC)(C(=O)OCC)CC2)CC1` reads inactive: 1.81%; that for `CC(=O)OC1OCCOC1NC(=S)Nc1ccc(C)cc1` (stereo unspecified), inactive: -7.97%; that for `COc1ccc(CNC(=O)N2CCN(S(=O)(=O)c3ccc(C)cc3C)CC2)cc1`, inactive: 25.5%. Turning to `COc1ccc(N(C(=O)c2snc(C(N)=O)c2N)C(C(=O)NC2CCCC2)c2ccc(C)o2)c(OC)c1` (stereo unspecified), the “growth rescue (activation)” value was inactive: 10.2%. Regarding `COc1ccc(N(CC(=O)NC2CCCCC2)C(=O)CNC(=O)c2cccs2)cc1OC`, the “growth rescue (activation)” value was inactive: 9.42%. The result for `COc1cc(Cl)ccc1OC1(C)CCN(Cc2ccccc2OC(F)F)C1` (stereo unspecified) reads inactive: -5.03%; that for `Cc1nnc(SCC(=O)NNC(=O)c2ccc(F)cc2)n1Cc1ccccc1`, inactive: -12.3%; that for `O=[N+]([O-])c1cc(S(=O)(=O)N2CCOCC2)ccc1OCc1ccccc1C(F)(F)F`, inactive: 14.7%. The same measure for `COc1ccc(CC(C#N)(CO)c2nc3ccccc3[nH]2)cc1` (stereo unspecified): inactive: -3.4%; for `COC(=O)c1ccccc1NCC(=O)c1ccc(OC)cc1`: inactive: 12.9%; for `CC(C)NC(=O)CN1CCN(Cc2nc(-c3cccs3)no2)CC1`: inactive: -11.8%. The result for `COc1ccc(S(=O)(=O)N2CCC(C(=O)NCc3cccnc3)CC2)cc1C` reads inactive: -2.47%. Consider `COc1ccc(C(=O)N2CCN(Cc3ccc(OC)c(OC)c3)CC2)cc1`, for which the “growth rescue (activation)” value was inactive: 5.17%. The same measure for `CCC/C=N/Nc1nnc(Cc2ccc(OC)c(OC)c2)c(=O)[nH]1`: inactive: 0.389%; for `O=C(O)CC1(CC(=O)Nc2cccc(C(F)(F)F)c2)CCCC1`: inactive: 19.5%; for `CCOc1ccc(-c2[nH]nc3c2C(c2ccc4c(c2)OCO4)C(C#N)=C(N)O3)cc1OC` (stereo unspecified): inactive: 17.5%.

On to `O=C(Cc1ccc(F)cc1)Nc1c2c(nn1-c1cccc(Cl)c1)CS(=O)C2` (stereo unspecified), for which the “growth rescue (activation)” value is inactive: 30%. The same measure for `O=C(O)CN1C(=O)C2C3CC(C2C1=O)C1C(c2ccccc2)c2sc(=O)[nH]c2SC31` (stereo unspecified): inactive: 17%. The same measure for `Cc1ccc(NC(=O)COC(=O)c2ccc3c(c2)OCO3)cc1S(=O)(=O)N1CCCCC1`: inactive: 0.988%. The same measure for `Cc1cccn2c(CN(C)CC3CCCCO3)c(C(=O)N3CCCCC3)nc12` (stereo unspecified): inactive: -1.09%; for `CC1CCN(C2CC(=O)N(c3ccccc3)C2=O)CC1` (stereo unspecified): inactive: 19.9%.

`CCC1(C)Cc2c(sc3nc4n(c(=O)c23)CCCS4)CO1` (stereo unspecified): the “growth rescue (activation)” value was inactive: 23.8%. Take `COc1cc(CC(=O)N2CCC(n3nccc3NC(=O)C3CC3)CC2)cc(OC)c1OC`: the “growth rescue (activation)” value was inactive: 16.1%. The result for `CCCN(CCC)c1ccc(CC(=O)NC(C)Cc2ccccc2)cc1` (stereo unspecified) reads inactive: -1.98%; that for `CCOc1ccc(N(CC(=O)NCCc2ccc(Cl)cc2)S(=O)(=O)c2c(C)[nH]c(=O)[nH]c2=O)cc1`, inactive: 4.36%; that for `CCc1nc2ccc(C(=O)NCCN3CCOCC3)cn2c1N(C)Cc1ccc(OC)cc1`, inactive: -7.04%. The result for `CC(=O)N(C)c1ccc(NC(=S)Nc2cccc3ccccc23)cc1` reads inactive: 33.8%. `COCC(=O)N1CCC(Oc2ccc(C(=O)NCc3cc(C(C)C)no3)cc2)CC1`: the “growth rescue (activation)” value was inactive: -4.65%. The same measure for `CC(C)COC(=O)N1CCCCC1c1cc(C(=O)NCc2ccccc2)no1` (stereo unspecified): inactive: 32.9%; for `O=C(N/N=C/c1ccccc1)C(=O)N/N=C/c1ccccc1`: inactive: 16.7%. The result for `COc1ccc(N2C(=O)C3C(C2=O)C(C(=O)c2ccccc2)N2CCCC32)cc1` (stereo unspecified) reads inactive: -4.13%. The same measure for `NS(=O)(=O)c1ccc(Oc2ccc(S(N)(=O)=O)cc2)cc1`: inactive: -4.24%. Consider `COc1ccc(CNC(=O)C2CC(C)=C(C)CC2C(=O)O)cc1OC` (stereo unspecified), for which the “growth rescue (activation)” value was inactive: 5.48%. `COc1ccc(/C=N/NC(=O)c2nc(-c3ccccc3)n(-c3ccccc3)n2)c(O)c1`: the “growth rescue (activation)” value is inactive: 1.22%. The result for `Cc1cc(N/C(=N/S(=O)(=O)c2cc(F)ccc2F)c2ccccc2)n(-c2ccccc2)n1` reads inactive: 11.6%; that for `NC(N)=Nc1nc2ccc(Cl)cc2c(=O)[nH]1`, inactive: 6.9%. The same measure for `COc1ccc(N2CCN(Cc3nnnn3C3CCCCC3)CC2)cc1`: inactive: -6.38%; for `CC(C)(C)N(Cc1nc(-c2ccccc2)no1)C(=O)c1ccc2c(c1)OCO2`: inactive: 25.9%. For the molecule `O=C(NCCCN1CCOCC1)Nc1ccc(Cc2ccc(NC(=O)NCCCN3CCOCC3)cc2)cc1`, the “growth rescue (activation)” value was inactive: 1.69%. The same measure for `Cc1ccc(-n2c(C)cc(C(=O)OCC(=O)N3CCOCC3)c2C)cc1`: inactive: -2.75%. The same measure for `COc1ccc(-c2noc(CNC(=O)c3ccc4c(c3)OCO4)n2)cc1`: inactive: -7.89%; for `CCN(CC)CCN1CCN(c2cnc(C)cn2)CC1`: inactive: -2.36%; for `O=C(Nc1ccc(Cc2ccncc2)cc1)c1ccc(S(=O)(=O)N2CCCC2)cc1`: inactive: 16.8%. Take `C/C(=N\NC(=O)c1ccccc1)c1ccccc1F`: the “growth rescue (activation)” value is inactive: 2.4%. With `COc1ccc(Cl)cc1NC(=O)CCn1c(=O)oc2ccccc21`, the “growth rescue (activation)” value was inactive: 4.9%. The same measure for `C/C=C(\C)CN1CCC(n2nccc2NC(=O)c2ccc3c(c2)OCO3)CC1`: inactive: -8.78%.

With `CC(=O)c1ccc(OCc2c(-c3ccccc3)nnn2CC(=O)NS(=O)(=O)c2ccc(C)cc2)cc1`, the “growth rescue (activation)” value is inactive: -13%. With `O=C(NC1CC2CCCC(C1)N2C(=O)Nc1cccc(F)c1)C1CC1` (stereo unspecified), the “growth rescue (activation)” value was inactive: -14.9%.

As to `O=C(O)C1CCN(S(=O)(=O)c2ccc(Cl)s2)CC1`, the “growth rescue (activation)” value is inactive: 20.5%. As to `CN(C(=O)COC(=O)c1ccc([N+](=O)[O-])cc1)c1ccccc1`, the “growth rescue (activation)” value is inactive: 8.91%. Regarding `COc1ccccc1OC(C)C(=O)N1CCC(Cc2ccccc2)CC1` (stereo unspecified), the “growth rescue (activation)” value was inactive: 13.7%. Regarding `CCc1cccc(CC)c1NC(=O)COC(=O)c1ccccc1-c1nc2ccccc2s1`, the “growth rescue (activation)” value is inactive: 21.5%. With `Cc1cc(C)c(S(=O)(=O)Nc2ccc3[nH]c(=O)[nH]c3c2)c(C)c1`, the “growth rescue (activation)” value is inactive: 4.22%.
